Results taken from PubChem BioAssay AID1508623 (National Center for Advancing Translational Sciences (NCATS), 2021).
The whole screen tested about 48,000 compounds, of which about 450 (0.94%) were called active. Not shown: some 19% with an inconclusive outcome. Calls come from the whole dose curve; as a rule, active = well fitted inhibition curve with a large enough effect; inconclusive = small, poorly fitted or top-dose-only effect; inactive = no such curve, though single readings can be large or run the other way. The list shows a part of the results.

Assay: Primary qHTS for Identification of Small Molecule Inhibitors of Huntingtin Promoter Activity; note: nearly all actives have a fitted effect of over 50% in size
Conditions: HEK293 HTT promoter firefly luciferase reporter (activity 0% = vehicle and -100% = no light), 24 h; series mostly up to 57.5 µM; activity change, negative = inhibition: at the top concentration
Procedure, shortened: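 HEK293 Fluc reporter, 2,500 cells/well, 24 h pre-culture; cpds up to 57.5 uM final, 24 h 37 degrees C; Dual-Glo, 10 min RT; normalized vehicle = 0%, zero RLU = -100%.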
In the case of `COc1ccc(NC(=O)CC2Nc3ccccc3NC2=O)cc1` (centres undefined), the “activity change, negative = inhibition” value is reported as inactive: 11.5%. For `COc1cc(OC)c(NC(=O)N2CCC(CN3CCCC3)CC2)cc1Cl`, the “activity change, negative = inhibition” value was inactive: -17.1%. For `CCOC(=O)c1ccc(Nc2nn3c(=O)c4ccccc4nc3s2)cc1`, the “activity change, negative = inhibition” value was inactive: 0.979%. In the case of `COc1ccc(OC)c(NC(=O)c2ccc3c(Cl)c4c(nc3c2)CCCC4)c1`, the “activity change, negative = inhibition” value is reported as inactive: -5.57%. For `CCCCN(C)C(=O)Cn1cnc2sc(C)c(S(=O)(=O)N3CCC(C)CC3)c2c1=O`, the “activity change, negative = inhibition” value was inactive: -21.9%. In the case of `Cc1nn(-c2ccccc2)c2c1N(CC(=O)N1CCN(c3ccccc3F)CC1)C(=O)CS2`, the “activity change, negative = inhibition” value is reported as inactive: -20.1%. For `CCN(CC)c1ccc(C2Nc3ccccc3-c3cc(C)nn32)cc1` (centres undefined), the “activity change, negative = inhibition” value was inactive: -11.4%. With `CCCCN(CCCNC(=O)c1cc(Nc2ccccc2OC)nc2ccccc12)c1ccccc1` the “activity change, negative = inhibition” value was inactive: -10.6%. For `COc1ccc(CNC(=O)c2cccn2-c2nnc(N3CCCC3)s2)c(OC)c1`, the “activity change, negative = inhibition” value was inactive: -22.3%. For `COc1ccc(NC(=O)c2oc3ccccc3c2NC(=O)C2CCCCC2)c(OC)c1`, the “activity change, negative = inhibition” value was inactive: -8.83%. In the case of `Cc1cccc(-n2c(=O)c3c4c(sc3n3c(C)nnc23)CCCC4)c1`, the “activity change, negative = inhibition” value is reported as inactive: -12.4%. In the case of `Nc1c(C(=O)Nc2ccccc2)sc2nc3c(cc12)CN(Cc1ccccc1)CC3`, the “activity change, negative = inhibition” value is reported as inactive: -3.73%. In the case of `CCCCN(C)C(=O)c1ccc2c(c1)N(Cc1cccc(F)c1)C(=O)c1ccccc1S2`, the “activity change, negative = inhibition” value is reported as inactive: -5.93%. With `CCOc1cc(C#N)c(-n2nnc3c(sc4nc(C)cc(C)c43)c2=O)cc1OCC` the “activity change, negative = inhibition” value was inactive: -2.63%. In the case of `NS(=O)(=O)c1ccc(C(=O)O)cc1`, the “activity change, negative = inhibition” value is reported as inactive: 9.38%. For `Cc1cc(C)c(/C=C/c2onc(C)c2S(=O)(=O)N2CCC(C(=O)NCCc3ccccc3)CC2)c(C)c1`, the “activity change, negative = inhibition” value was inactive: -23%. For `O=C(Cn1c(=O)c2cccn2c2ccccc21)NCc1ccccc1F`, the “activity change, negative = inhibition” value was inactive: 1.07%. For `COC(=O)c1ccc(NC(=O)Cn2cnc3c2c(=O)n(C)c(=O)n3C)cc1`, the “activity change, negative = inhibition” value was inactive: -2.2%. For `CCc1cccc(C)c1NC(=O)C1CCCN1S(=O)(=O)c1cccc2nsnc12` (centres undefined), the “activity change, negative = inhibition” value was inactive: -16.2%. For `Cc1ccc(C(=O)c2cn(Cc3ccccc3)c3nc(C)ccc3c2=O)cc1`, the “activity change, negative = inhibition” value was inactive: -11.5%. With `CCn1c(=O)c(=O)n(CC)c2cc(S(=O)(=O)Nc3ccc(C)cc3)ccc21` the “activity change, negative = inhibition” value was inactive: -12.7%. With `COc1cc(OC)c(NC(=O)c2cc3c(=O)oc4ccc(C)cc4c3s2)cc1Cl` the “activity change, negative = inhibition” value was inactive: -16.4%. For `Cc1ccc(-n2ncc3c(NCCO)ncnc32)cc1Cl`, the “activity change, negative = inhibition” value was inactive: 61.9%. In the case of `Cc1cc(NC(=O)c2cc(-c3ccc(Cl)cc3)on2)n(-c2ccccc2)n1`, the “activity change, negative = inhibition” value is reported as inactive: 1.69%. In the case of `CCOc1ccc(NC(=O)Cn2c(=O)n(-c3cccc(Cl)c3)c(=O)c3c2c2cc(C)ccc2n3C)cc1`, the “activity change, negative = inhibition” value is reported as inactive: -5.89%. In the case of `CCOc1cccc(C2c3[nH]c4ccccc4c3CCN2C(=O)CSc2ccccc2)c1` (centres undefined), the “activity change, negative = inhibition” value is reported as inactive: -29.9%. With `Cc1cccc(C(=O)N2CCc3cc(CNC(=O)COc4ccc(Cl)cc4)ccc32)c1` the “activity change, negative = inhibition” value was inactive: -26.4%. In the case of `Cc1ccccc1Nc1c(-c2ccc(Cl)cc2)nc2c(C)cccn12`, the “activity change, negative = inhibition” value is reported as inactive: -3.14%. In the case of `COc1ccc(NC(=O)Cn2c(=O)n(CCc3ccccc3)c(=O)c3c4c(sc32)CCCC4)cc1`, the “activity change, negative = inhibition” value is reported as inactive: -3.04%. With `CCOC(=O)c1c(NC(=O)c2nc(SCC)ncc2Cl)sc2c1CCCC2` the “activity change, negative = inhibition” value was inactive: 6.49%. For `COc1cc2c(=O)c(C(=O)c3ccc(C)c(C)c3)cn(Cc3ccc(F)cc3)c2cc1OC`, the “activity change, negative = inhibition” value was inactive: 2.15%. With `CCOc1ccccc1NC(=O)c1ccc2c(c1)CCN2S(=O)(=O)c1ccc(C)cc1` the “activity change, negative = inhibition” value was inactive: -2.91%. For `Cc1nc(SCC(=O)Nc2ccccc2C)cc(-c2ccccc2)n1`, the “activity change, negative = inhibition” value was inactive: -1.77%. With `CCSc1nnc2c(n1)OC(c1cc(OC)c(OC)c(OC)c1)Nc1ccccc1-2` (centres undefined) the “activity change, negative = inhibition” value was inactive: -3.77%. In the case of `CCOC(=O)c1c(C)[nH]c(C)c1S(=O)(=O)NCC(=O)Nc1ccc(C)c(N(C)C)c1`, the “activity change, negative = inhibition” value is reported as inactive: -9.54%. For `CCOc1cc(CNC(=O)Cn2c(=O)c3cccn3c3ccc(F)cc32)cc(OCC)c1OCC`, the “activity change, negative = inhibition” value was inactive: -14.1%. For `COc1cc(NS(=O)(=O)c2ccc(NC(=O)c3cccc(F)c3)cc2)nc(OC)n1`, the “activity change, negative = inhibition” value was inactive: -6.42%. For `CCC1CN(S(=O)(=O)c2cc(-c3cc(C)no3)ccc2C)c2cc(Cl)ccc2O1` (centres undefined), the “activity change, negative = inhibition” value was inactive: -11.3%. For `CCCc1nn2c(=O)cc(COC(=O)c3cccc(NC(=O)c4cccs4)c3)nc2s1`, the “activity change, negative = inhibition” value was inactive: -17.3%. In the case of `CCc1cccc(C)c1NC(=O)CCS(=O)(=O)c1cc(Br)cc2c1N(C(=O)C1CC1)CC2`, the “activity change, negative = inhibition” value is reported as inactive: -20.3%. For `Cc1c(C(=O)NCc2ccc(Cl)cc2)sc2nc3n(c(=O)c12)CCCCC3`, the “activity change, negative = inhibition” value was inactive: -19.1%. In the case of `O=C(Nc1ccc(C(=O)OCc2cc(=O)n3c4c(sc3n2)CCCC4)cc1)c1ccc(F)cc1`, the “activity change, negative = inhibition” value is reported as inactive: -8.08%. In the case of `CCc1nn2c(-c3ccccc3OC)ccnc2c1-c1ccccc1`, the “activity change, negative = inhibition” value is reported as inactive: -21.7%. With `O=C(NCCc1ccccc1)C(=O)NCC(c1ccco1)S(=O)(=O)c1cccs1` (centres undefined) the “activity change, negative = inhibition” value was inactive: -23.5%. With `COc1ccc(-c2nc(CSc3nncn4c3cc3oc(C)cc34)c(C)o2)cc1` the “activity change, negative = inhibition” value was inactive: 0.484%. In the case of `Cc1ccc(-n2nnc(-c3nc(-c4cccs4)no3)c2N)cc1C`, the “activity change, negative = inhibition” value is reported as inactive: 42.1%. For `COc1cc(NC(=O)CN2C(=O)c3ccccc3Sc3ccc(C(=O)N4CCCC4)cc32)cc(OC)c1`, the “activity change, negative = inhibition” value was inactive: -4.86%. In the case of `CCOC(=O)c1[nH]c2ccccc2c1NC(=O)c1ccccc1F`, the “activity change, negative = inhibition” value is reported as inactive: -12.2%. With `CCN1CCN(CCCNC(=O)CS(=O)(=O)Cc2nc(-c3cccc(OC)c3)oc2C)CC1` the “activity change, negative = inhibition” value was inactive: -2.89%.
